# Reference: paper PMC4336329 (PLoS ONE, 2015)
# In all, about 310,000 compounds went through this assay and about 2,200 (0.71%) showed an effect of 50% or more. The effect is printed as a negative number. Some of the results follow.
# Target: human ether-à-go-go-related gene (hERG) potassium channel (human, UniProt Q12809)
# Test: primary screen, population patch clamp on CHO cells stably expressing hERG
# Chain of human ether-à-go-go-related gene (hERG) potassium channel (Q12809 whole entry, looked up): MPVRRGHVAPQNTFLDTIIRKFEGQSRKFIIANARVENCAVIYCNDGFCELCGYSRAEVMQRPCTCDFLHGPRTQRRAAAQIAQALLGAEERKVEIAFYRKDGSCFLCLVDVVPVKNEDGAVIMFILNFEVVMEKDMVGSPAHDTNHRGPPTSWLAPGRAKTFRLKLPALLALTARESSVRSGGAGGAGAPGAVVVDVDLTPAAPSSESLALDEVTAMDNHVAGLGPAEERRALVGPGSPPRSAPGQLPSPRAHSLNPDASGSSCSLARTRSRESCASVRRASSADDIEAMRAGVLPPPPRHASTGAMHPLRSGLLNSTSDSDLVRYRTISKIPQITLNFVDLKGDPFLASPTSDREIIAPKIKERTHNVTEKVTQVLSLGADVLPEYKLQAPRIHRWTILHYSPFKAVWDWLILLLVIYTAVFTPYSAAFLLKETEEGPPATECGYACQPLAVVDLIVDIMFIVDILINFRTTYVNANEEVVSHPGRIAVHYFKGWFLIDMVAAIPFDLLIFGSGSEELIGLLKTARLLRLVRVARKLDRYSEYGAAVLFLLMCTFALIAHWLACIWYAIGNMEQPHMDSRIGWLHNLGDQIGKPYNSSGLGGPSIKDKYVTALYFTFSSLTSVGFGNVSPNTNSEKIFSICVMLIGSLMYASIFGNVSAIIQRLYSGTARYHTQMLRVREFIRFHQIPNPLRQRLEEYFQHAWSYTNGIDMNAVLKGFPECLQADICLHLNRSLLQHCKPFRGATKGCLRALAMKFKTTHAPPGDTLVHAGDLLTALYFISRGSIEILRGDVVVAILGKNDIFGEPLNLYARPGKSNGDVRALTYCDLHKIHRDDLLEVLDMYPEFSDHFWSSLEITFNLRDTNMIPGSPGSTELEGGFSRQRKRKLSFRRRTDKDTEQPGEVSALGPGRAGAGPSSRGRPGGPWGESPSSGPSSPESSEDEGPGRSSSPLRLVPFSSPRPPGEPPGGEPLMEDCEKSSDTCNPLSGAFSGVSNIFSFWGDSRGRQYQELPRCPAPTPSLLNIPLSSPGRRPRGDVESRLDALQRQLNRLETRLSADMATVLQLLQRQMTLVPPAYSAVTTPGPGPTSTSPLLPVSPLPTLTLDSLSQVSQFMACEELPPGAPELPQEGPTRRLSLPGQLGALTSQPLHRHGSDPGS
row,Compound,"hERG current change (%, negative = inhibition) at 1uM [%]"
1,CCOc1ccccc1CN1CCCC(CNS(=O)(=O)c2ccc(OC)cc2)C1 (stereo not drawn),-16
2,O=C(COC(=O)C1CCCN1C(=O)c1cccs1)c1ccccc1 (stereo not drawn),9.65
3,O=C(CSc1nc2ccccc2s1)N/N=C/c1ccc(C(=O)O)cc1,10.4
4,O=C(O)CN1C(=O)/C(=C/c2ccc(N3CCCCC3)o2)SC1=S,16.1
5,O=C(O)c1ccc2c3c(cccc13)C(=O)N(c1ccccc1)C2=O,8.95
6,O=C(Nc1cccc(-c2csc(Nc3ccc(Cl)cc3)n2)c1)c1cccc(C(F)(F)F)c1,16.7
7,CC(NC(=O)CCNS(=O)(=O)c1cccc2nsnc12)c1ccccc1 (stereo not drawn),1.38
8,CCCNC(=O)C(Cc1ccc(Cl)cc1)NC(=O)c1ccc(C#N)cc1 (stereo not drawn),-1.74
9,Cc1ccc(-c2cn(CCC(=O)O)c(-c3ccc(Cl)nc3)n2)cc1,7.77
10,COC(=O)C1=C(C(=O)OC)[C@@H]2Nc3ccccc3[C@@]23C[C@@H](C(=O)OC)N(C(=O)COCc2ccccc2)C3=N1,6.49
11,Cc1ccc(CNc2oc(C)nc2C#N)cc1,2.36
12,O=C(O)c1nc(NCc2ccccc2)ncc1Cl,9.3
13,Cc1ccc(C(C)C)c(OCC(=O)Nc2ccc(Cl)cn2)c1,6.23
14,Cc1cccc(N2CN(Cc3cccnc3)CNC2=S)c1C,8.71
15,Cc1cccc(CCNCc2cc3cc(C)cc(C)c3[nH]c2=O)c1,7.02
16,O=C(Nc1ccccc1)c1ccc(S(=O)(=O)Nc2cccc(O)c2)cc1,-14.9
17,CN(C)C=NC(=O)c1ccc(N2CCN(c3ncc(C(F)(F)F)cc3Cl)CC2)cc1,10.9
18,O=C(NNC(=O)c1cnccc1C(F)(F)F)c1cccc(Cl)c1,9.38
19,COc1ccc2cc(C3OCCO3)c(Cl)nc2c1,4.55
20,CCN(C(=O)c1ccc(S(=O)(=O)N2CCCC2)cc1)C1CCS(=O)(=O)C1 (stereo not drawn),7.01
21,COc1ccccc1N1CCN(C(=O)C(=O)N/N=C/c2ccccc2F)CC1,5.15
22,C/C(CCc1ccc2c(c1)OCO2)=N\NC(=O)c1ccccc1Cl,-1.21
23,Cc1cc2oc(=O)cc(CN3CCN(Cc4ccccc4)CC3)c2cc1Cl,0.748
24,C=CCN(CC=C)C(=O)c1ccc(OC2CCN(C(C)=O)CC2)c(OC)c1,14.1
